Results: article PMC5788634, “Cell surface expression of nucleolin mediates the antiangiogenic and antitumor activities of kallistatin” (Oncotarget, 2017)

Target: T1, Recombinant human kallistatin with a his-tag (human, UniProt P29622 21-427)
T1 construct: kallistatin, human, recombinant; The his-tag is named only for the Ni-NTA pull-down; also called his-tagged kallistatin; source: P. pastoris strain GS115, purified (Phenyl Superose and Heparin Sepharose FF chromatography)
T1 sequence (looked up): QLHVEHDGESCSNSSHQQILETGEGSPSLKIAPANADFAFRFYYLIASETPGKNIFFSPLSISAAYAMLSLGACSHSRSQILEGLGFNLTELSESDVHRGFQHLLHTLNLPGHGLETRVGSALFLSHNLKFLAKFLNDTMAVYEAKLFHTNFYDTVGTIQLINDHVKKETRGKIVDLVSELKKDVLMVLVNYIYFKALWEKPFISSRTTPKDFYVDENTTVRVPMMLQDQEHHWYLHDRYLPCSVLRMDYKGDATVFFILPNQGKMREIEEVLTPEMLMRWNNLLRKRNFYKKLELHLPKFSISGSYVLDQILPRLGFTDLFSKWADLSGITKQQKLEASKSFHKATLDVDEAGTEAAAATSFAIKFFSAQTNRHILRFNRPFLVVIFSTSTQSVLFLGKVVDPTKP
Assay: SPR; real-time kinetic binding sensorgrams at the indicated concentrations; who was immobilised and the conditions not given

B1: nucleolin (as used for surface plasmon resonance) (natural protein)
chain: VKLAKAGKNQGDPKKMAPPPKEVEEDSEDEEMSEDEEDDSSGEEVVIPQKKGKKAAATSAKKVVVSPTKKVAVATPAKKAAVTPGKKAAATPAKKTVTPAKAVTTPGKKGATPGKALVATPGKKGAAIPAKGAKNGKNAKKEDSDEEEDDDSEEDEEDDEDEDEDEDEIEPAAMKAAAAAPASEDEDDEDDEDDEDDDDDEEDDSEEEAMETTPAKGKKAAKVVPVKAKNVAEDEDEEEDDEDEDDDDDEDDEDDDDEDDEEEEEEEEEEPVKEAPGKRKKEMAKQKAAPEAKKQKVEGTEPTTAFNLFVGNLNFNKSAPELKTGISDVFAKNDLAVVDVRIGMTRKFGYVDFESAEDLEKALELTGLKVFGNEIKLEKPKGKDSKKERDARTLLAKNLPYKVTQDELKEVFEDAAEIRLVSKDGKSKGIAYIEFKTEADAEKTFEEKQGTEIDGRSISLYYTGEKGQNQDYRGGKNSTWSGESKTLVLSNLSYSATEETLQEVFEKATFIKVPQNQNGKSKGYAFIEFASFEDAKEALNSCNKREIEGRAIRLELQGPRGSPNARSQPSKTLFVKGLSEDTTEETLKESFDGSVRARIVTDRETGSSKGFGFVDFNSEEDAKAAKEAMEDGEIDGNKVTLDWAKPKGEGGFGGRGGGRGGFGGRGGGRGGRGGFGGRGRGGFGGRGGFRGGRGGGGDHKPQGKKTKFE
Kd: 20.4 nM
